# Experimental data as given in PubChem BioAssay AID1347120 (National Center for Advancing Translational Sciences (NCATS), 2019).
# Out of some 390,000 compounds screened, about 930 (0.24%) were called active. The shares of active, inactive and inconclusive entries below differ from those in the screen. The call rests on the fitted dose curve; in most records, active means well fitted activation curve with a large enough effect; inconclusive means small, poorly fitted or top-dose-only effect; inactive means no such curve, though single readings can be large or run the other way. Potencies beside an inconclusive call are fits to weak or partial responses and may not hold up.
# Assay: qHTS for Suppressors of FUS Proteinopathy: Primary screen using FUS-linked yeast assay; further: nearly all actives have a fitted effect of over 55% in size;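 on growth rescue (activation): plate controls were DMSO vehicle for no effect and reference control for full effect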
# Settings: S. cerevisiae FUS-expressing, OD600, 24 h; Potency: growth rescue; growth rescue (activation): at 76.6 µM (top of the series)
# Method in brief: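 Toxicity suppression screen in FUS-yeast. Cells induced with 2% galactose, starting OD 0.005, treated 24hr at 30C with compounds at multiple final concentrations; growth by OD600.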
# Potency means the concentration at half of the fitted maximal effect; tags describe the fitted curve by direction and shape.
SMILES,Potency,growth rescue (activation)
C(=Cc1c[nH]c2ccccc12)c1nccc2ccccc12,"inconclusive: 31.6 µM [activator, partial curve, poor fit]",
CN(C)C(=O)c1cccc(-c2cc(NC=O)c3ncc(-c4ccc(F)c(Cl)c4)n3c2)c1,"inconclusive: 35.5 µM [activator, single point]",
COc1ccccc1N1CCN(C(=O)Cn2cnc3onc(-c4ccc(F)cc4)c3c2=O)CC1,"inconclusive: 31.6 µM [activator, single point]",
Cc1cc(C)n(CC(O)Cn2c3ccc(Br)cc3c3cc(Br)ccc32)c(=O)n1 (stereo unspecified),"inconclusive: 50.1 µM [activator, single point]",
Cc1c(O)ccc(C(=O)COc2ccc(F)cc2)c1O,,inactive: -10.2%
Fc1ccc(Nc2nc(NCc3ccco3)c3ccccc3n2)cc1,,inactive: 1.24%
Cc1nn(CC(=O)Nc2ccc3c(c2)OCO3)c(C)c1Cl,,inactive: -8.1%
Cc1cc(C)c(N2C(=O)CC(Sc3ccccc3N)C2=O)c(C)c1 (stereo unspecified),"inconclusive: 25.1 µM [activator, single point]",
CC(C)c1ccc(CN(Cc2ccco2)c2cnc(S(C)(=O)=O)nc2C(=O)Nc2ccc(F)cc2)cc1,"inconclusive: 10 µM [activator, full curve, poor fit]",
Nc1c(-c2ccc(Cl)cc2)cnn1-c1cccc([N+](=O)[O-])c1,,inactive: 21.8%
COc1ccc(C2c3[nH]c4ccccc4c3CCN2C(=O)c2cn3ccccc3n2)c(F)c1 (stereo unspecified),"inconclusive: 35.5 µM [activator, single point]",
COc1ccc(/C=C/C(=O)NC(=S)NNC(=O)c2ccco2)cc1,,inactive: -3.84%
N=C1/C(=C\c2coc3ccccc3c2=O)C(=O)N=C2SC(c3ccncc3)=NN12,"inconclusive: 28.2 µM [activator, partial curve, poor fit]",
CCCCCCOc1ccc(C2C(=O)N(C3CCCCC3)CC(=O)N2CCC)cc1 (stereo unspecified),,inactive: 41.7%
O=P(OC1CCCCC1)(OC1CCCCC1)C(Nc1ccccc1)c1cccnc1 (stereo unspecified),"inconclusive: 22.4 µM [activator, partial curve, poor fit]",
COC(=O)[C@]12C[C@H](CC(=O)NCCCCc3ccccc3)C(=O)N(Cc3cccc4ccccc34)C1=C[C@H](C(C)C)O[C@@H]2C1CC1,"inconclusive: 15.8 µM [activator, partial curve, poor fit]",
CCCCCN(C(=O)CCC(=O)OCC(=O)N(CC)C1CCCCC1)c1c(N)n(CCCC)c(=O)[nH]c1=O,"inconclusive: 8.91 µM [activator, partial curve, poor fit]",
COc1cccc(N2CC(NC(=O)CCCc3ccccc3)CC2=O)c1 (stereo unspecified),,inactive: 23.7%
COc1ccc(N2CCN(CCNS(=O)(=O)c3c(C(C)C)cc(C(C)C)cc3C(C)C)CC2)cc1,"inconclusive: 20 µM [activator, partial curve]",
COc1ccc(CC(=O)Oc2ccc(C(C)(C)C)cc2)cc1S(=O)(=O)N1CCOCC1,"inconclusive: 28.2 µM [activator, single point]",
CN(C(=O)c1ccc(NC(=O)Cc2cccc(NC(=O)C3CCCN(C(=O)C4CCCCC4)C3)c2)cc1)C1CCCC1 (stereo unspecified),active: 28.2 µM,

SMILES,Potency,growth rescue (activation)
COc1cccc(Nc2sc(C(=O)c3ccc(F)cc3)c(N)c2C(=O)NCc2ccc(Cl)cc2)c1,"inconclusive: 22.4 µM [activator, single point]",
CC(C)c1ccc(S(=O)(=O)c2nnn3c2nc(N2CCCCC2)c2sccc23)cc1,,inactive: 13.2%
CC(=O)Nc1cccc(OCc2ccc([N+](=O)[O-])cc2)c1,"inconclusive: 28.2 µM [activator, single point]",
COc1cccc(C(=O)Nc2ccc(-c3cc(C(F)(F)F)nn3-c3ccccc3)cc2)c1,"inconclusive: 50.1 µM [activator, single point]",
COc1cc(NC(=O)c2ccccc2)c(OC)cc1NC(=O)CN1C(=O)NC2(CCCCC2C)C1=O (stereo unspecified),"inconclusive: 39.8 µM [activator, single point]",
O=C(NC(Cc1ccc2c(c1)OCO2)C(=O)N1CCCC1C(=O)O)c1ccccc1 (stereo unspecified),,inconclusive: 63.4% [activator]
CCc1nc(Nc2ccc(F)cc2)c2oc3ccccc3c2n1,,inactive: -5.2%
O=C(Nc1ccc(Cl)cc1)Nc1ccc2c(c1)N1CCN=C1S2,"inconclusive: 28.2 µM [activator, partial curve, poor fit]",
O=C(CN1CCN(S(=O)(=O)c2ccc(Br)cc2)CC1)N/N=C/c1ccc(Cl)c([N+](=O)[O-])c1,"inconclusive: 35.5 µM [activator, single point]",
CCOC(=O)C1(Cc2cccc(Cl)c2)CCCN(C(=O)c2c(CC)noc2C)C1 (stereo unspecified),"inconclusive: 14.1 µM [activator, partial curve, poor fit]",
CCOC(=O)C1C(c2ccc(OC)c(OC)c2)c2c([nH][nH]c2=O)CC1(C)O (stereo unspecified),,inconclusive: -91.8% [activator]
CCOc1ccc(C(C)NC(=S)NC2CCCCC2)cc1OCC (stereo unspecified),,inactive: 29.4%
O=C1NC(=O)c2c(NC(=O)C3CCCO3)cccc21 (stereo unspecified),,inactive: 11.1%
CCOC(=O)c1ccc(NC(=O)CSc2nnc(COc3ccccc3OC)n2C)cc1,"inconclusive: 11.2 µM [activator, single point]",
CC(=O)N1CCc2c(sc3c2c(=O)n(CCc2ccccc2)c(=O)n3Cc2ccc(Cl)cc2)C1,"inconclusive: 14.1 µM [activator, partial curve, poor fit]",
CN(C)C(=O)c1cccc(-c2cnc3c(NC=O)cc(-c4cccc(C(F)(F)F)c4)cn23)c1,active: 28.2 µM,
CCOCCCNc1ncnc2c1cnn2-c1ccc(C)c(C)c1,,inactive: 39.5%
Cc1cccc(C)c1NC(=O)c1cn(-c2ccccc2)nc1-c1ccccc1,,inactive: -14.8%
Cc1ccc(C(=O)c2c(NC(=O)c3cccnc3)sc3c2CCCC3)cc1,"inconclusive: 35.5 µM [activator, single point]",
CCC(C)(C)NC(=O)C(c1cccs1)N(C(=O)c1ccn[nH]1)c1cccc(OC)c1 (stereo unspecified),"inconclusive: 15.8 µM [activator, partial curve, poor fit]",
